Source: publication PMC4336329 (PLoS ONE, 2015)
Out of some 310,000 compounds screened, about 2,200 (0.71%) showed an effect of 50% or more. The effect is printed as a negative number. The list shows a part of the results.

molecular target: human ether-à-go-go-related gene (hERG) potassium channel (human, UniProt Q12809); assay: primary screen, population patch clamp on CHO cells stably expressing hERG
Sequence (Q12809 whole entry, looked up): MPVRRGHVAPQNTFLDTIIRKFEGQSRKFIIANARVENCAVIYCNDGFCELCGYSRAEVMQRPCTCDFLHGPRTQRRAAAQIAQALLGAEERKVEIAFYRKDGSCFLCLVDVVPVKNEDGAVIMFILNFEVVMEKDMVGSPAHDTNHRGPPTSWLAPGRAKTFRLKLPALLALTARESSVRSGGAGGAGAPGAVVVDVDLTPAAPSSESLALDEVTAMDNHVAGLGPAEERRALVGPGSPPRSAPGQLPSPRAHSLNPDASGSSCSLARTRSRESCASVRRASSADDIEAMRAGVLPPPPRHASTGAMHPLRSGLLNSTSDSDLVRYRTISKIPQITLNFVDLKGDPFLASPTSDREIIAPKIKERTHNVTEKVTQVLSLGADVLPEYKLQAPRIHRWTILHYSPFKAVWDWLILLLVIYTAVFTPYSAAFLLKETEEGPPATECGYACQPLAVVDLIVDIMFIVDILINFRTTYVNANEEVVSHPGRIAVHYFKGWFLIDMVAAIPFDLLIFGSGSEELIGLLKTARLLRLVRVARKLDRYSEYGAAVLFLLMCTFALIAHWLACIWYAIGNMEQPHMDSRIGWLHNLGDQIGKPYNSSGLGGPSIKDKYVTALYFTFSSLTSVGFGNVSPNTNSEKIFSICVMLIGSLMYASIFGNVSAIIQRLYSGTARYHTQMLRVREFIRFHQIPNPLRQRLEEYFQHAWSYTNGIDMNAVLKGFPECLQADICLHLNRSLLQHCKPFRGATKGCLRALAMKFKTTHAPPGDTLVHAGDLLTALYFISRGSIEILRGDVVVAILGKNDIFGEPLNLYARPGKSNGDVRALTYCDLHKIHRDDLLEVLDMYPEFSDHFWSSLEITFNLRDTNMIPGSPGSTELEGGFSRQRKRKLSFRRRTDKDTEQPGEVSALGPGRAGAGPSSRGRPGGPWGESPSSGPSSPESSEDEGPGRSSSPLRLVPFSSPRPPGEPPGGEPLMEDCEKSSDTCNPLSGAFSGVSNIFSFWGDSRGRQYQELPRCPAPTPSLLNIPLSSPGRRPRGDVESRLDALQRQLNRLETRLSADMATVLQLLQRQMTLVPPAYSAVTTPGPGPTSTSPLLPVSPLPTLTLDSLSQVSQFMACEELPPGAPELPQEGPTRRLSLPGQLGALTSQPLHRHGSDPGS

SMILES	hERG current change (%, negative = inhibition) at 1uM [%]
O=C(O)C(=O)O.O=C(c1cccc(F)c1)N1CCN(Cc2c[nH]c3ccccc23)CC1	3.32
COc1ccc(S(=O)(=O)Nc2ccc(N3CCOCC3)cc2)cc1[N+](=O)[O-]	11.7
COc1ccc(N2CC(C(=O)N[C@@H](CC(C)C)C(=O)NC3CCCCC3)CC2=O)cc1 (some centres unmarked)	13.6
FC(F)(F)c1cccc(CN2CCCCCC2)c1	1.95
CC1=C(C)C(=O)N(c2ccccn2)C1=O	11.4
O=C(CSc1ncn[nH]1)Nc1cc(S(=O)(=O)N2CCCC2)ccc1Cl	-1.19
O=C(c1ccc(COc2c(F)c(F)c(F)c(F)c2F)o1)N1CCOCC1	-0.4
Cc1cc(C)c2nc(/N=C(\N)NC(=O)Nc3ccccc3)nc(C)c2c1	3.38
CCn1c(CCc2nc3ccccc3[nH]2)n[nH]c1=S	33.6
COc1ccc(N(C(=O)C(C)C)S(=O)(=O)c2ccc3ccccc3c2)cc1	7.49
O=C(COC(=O)CCc1nc2ccccc2s1)NC(=O)NCc1ccco1	-3.19
Cc1nc2ccccc2c2c1C(=O)N(c1ccc(C(=O)O)cc1)C2=O	7.18
Cc1c(C2Nc3ccccc3C(=O)N2O)cnn1C (centres unmarked)	6.1
O=C(COc1cc(O)c2c(=O)cc(-c3ccccc3)oc2c1)c1ccccc1	7.59
CC(C)Cn1c(-c2csc3ccccc23)n[nH]c1=S	4.43
O=C(C1CCN(S(=O)(=O)c2ccc3ccccc3c2)CC1)N1CCN(c2ncccn2)CC1	4.33
CCOC(=O)N1CCC(NC(=O)C2CCCN(S(=O)(=O)c3ccc4c(c3)oc(=O)n4C)C2)CC1 (centres unmarked)	11.3
O=C(COc1ccccc1[N+](=O)[O-])Nc1ccc(N2CCN(C(=O)c3cccs3)CC2)cc1	3.93
CN(C)S(=O)(=O)c1ccc2c(c1)c(=O)c(C(=O)N1CCOCC1)cn2C	7.71
Fc1ccc(COc2cccc(-c3n[nH]c(=S)o3)c2)cc1	9.67
COc1ccc(C)c(S(=O)(=O)Nc2ccc(OCC(=O)O)cc2)c1	15.5
CCOC(=O)CSc1nnc2c(n1)C1(C)CCC2C1(C)C (centres unmarked)	1.95

SMILES	hERG current change (%, negative = inhibition) at 1uM [%]
O=C(O)CCC(=O)NC(c1ccccc1)c1ccccc1	6.14
CCOC(=O)CN(C(=O)CSc1nnc(CNc2ccc(F)cc2)n1CC)c1ccc(F)cc1	-6.17
CCCC(=O)Nc1ccc(NCc2ccc(C)s2)cc1	7.57
CCCCn1c(N)c(N(CC(C)C)C(=O)C(C)SCc2nc3sc(C)c(C)c3c(=O)[nH]2)c(=O)[nH]c1=O (centres unmarked)	13.5
COc1cccc(N2C(=O)Nc3ccc(Br)cc3C2(O)C(=O)NCCCOC(C)C)c1 (centres unmarked)	16.8
O=C(Nc1ncccn1)c1cccs1	14
COc1ccc(S(=O)(=O)N(c2onc(C)c2Cl)S(=O)(=O)c2ccc(OC)cc2)cc1	15.1
COc1ccccc1CNC(=O)CCNS(=O)(=O)c1cccc2nonc12	14.1
Cc1cccc(NC(=S)N(CCc2ccncc2)C(C)C)c1C	6.18
CCc1ccc(NC(=S)Nn2cnnc2)cc1	12.6
NC(=O)COC(=O)CC(NC(N)=O)c1ccc(Cl)cc1 (centres unmarked)	16
OC(COc1ccc(F)cc1Cl)CN1CCc2ccccc2C1 (centres unmarked)	-10.6
O=C(NCCc1ccccc1)c1ccc(CS(=O)(=O)c2ccc(Br)cc2)o1	10.1
CCOC(=O)c1c(NC(=O)CC)sc2c1CCN(Cc1ccccc1)C2.Cl	11.9
Cc1c(C(=O)Nc2ccccc2Cl)oc2ccc(S(=O)(=O)N3CCC4(CC3)OCCO4)cc12	4.25
CCN(C(=O)CN1C(=O)S/C(=C\c2cccc(OC)c2)C1=O)C1CCS(=O)(=O)C1 (centres unmarked)	-3.31
O=C(NCc1cccnc1)Nc1ccc(Cl)cc1Cl	4.27
CN(C)c1nc(OCC(=O)NC(C)(C)C)nc(N(C)C)n1	8.97
COc1nc(NCC(C)C)nc(Oc2ccc(=O)n(-c3ccccc3)n2)n1	8.4
Cl.Clc1ccc(COc2cccc(CNCc3ccncc3)c2)cc1	-14.5
CC1CC(C)CN(CCCNC(=O)c2ccc3c(c2)NC(=O)C(N2CCCCC2)S3)C1 (centres unmarked)	2.06
Cn1ccnc1C(=O)c1ccccc1Cl	11.6

SMILES	hERG current change (%, negative = inhibition) at 1uM [%]
COc1ccccc1CN(C)C(=O)C1COc2ccccc2O1 (centres unmarked)	12.5
CC1(C)C[C@H](O)[C@@]23C[C@@H](OC2=O)[C@]2(C)C(=CCC4[C@@]5(C)CC[C@H](O)C(C)(C)C5CC[C@]42C)[C@@H]3C1 (some centres unmarked)	17.7
CC(=O)c1ccc(NC(=O)Nc2ccc3c(c2)nc(C)n3C)cc1	-7.58
CC(CNc1ccc([N+](=O)[O-])c2cccnc12)Nc1c([N+](=O)[O-])cc(C(F)(F)F)cc1[N+](=O)[O-] (centres unmarked)	13.4
CC(C)(C)c1ccc(OCC(=O)Nc2ccncc2)c(Br)c1	17.4
CC(C)c1ccc(NC(=O)C2CCN(S(C)(=O)=O)CC2)cc1	7.04
COc1ccc(OC)c(S(=O)(=O)Nc2cc(C)on2)c1	13
COc1cc(S(=O)(=O)N2CCOCC2)ccc1NC(=O)COc1ccc(N(C)S(=O)(=O)c2ccc(C)cc2)cc1	13.1
CCn1c(SCc2ccc(C(=O)O)cc2)nnc1-c1ccc(Cl)cc1	21
CCN(CC)S(=O)(=O)c1ccc2c(c1)c(=O)c(C(=O)N1CCN(c3ccccc3)CC1)cn2C	-5.24
Cn1c(NC(=O)c2cccs2)c(-c2cccs2)c(=O)c2ccccc21	4.65
COc1ccc(C(=O)C2CCCN(Cc3ccc(C#CCCO)cc3)C2)c(OC)c1 (centres unmarked)	-8.86
Cc1cc(=O)oc2cc(OCC(=O)Nc3c(Cl)cccc3C(F)(F)F)ccc12	2.47
Cc1[nH]c2ccc(-c3nnc(SCC(=O)N4CCCc5ccccc54)o3)cc2c1C	7.95
Cc1ccc(OCC(O)Cn2c(=N)n(CCN3CCOCC3)c3ccccc32)cc1.Cl (centres unmarked)	-9.7
O=C(Cc1ccccc1)N1CCC(c2nc(-c3ccc(F)cc3)no2)CC1	-7.26
O=C1CC(NS(=O)(=O)c2cccs2)CN1c1ccc(Cl)cc1 (centres unmarked)	13.2
O=C1CC(=O)Nc2cc(S(=O)(=O)Nc3cccc(C(F)(F)F)c3)ccc2N1	5.53
CCOc1ccc(-n2c(O)c(/C=N/c3ccnn3Cc3ccncc3)c3ccccc3c2=O)cc1	15
Nc1nonc1-n1nnc(C(=O)N/N=C/c2cccc(F)c2)c1-c1ccccc1	-15
CC(C)Oc1ccc(/C=N/NC(=O)C2CCCN2S(=O)(=O)c2ccc(Cl)cc2)cc1 (centres unmarked)	7.16
C[C@@H](C(=O)NCCc1ccc(F)cc1)N1C(=O)N2CCc3c([nH]c4ccccc34)[C@@]2(C)C1=O	4.48

SMILES	hERG current change (%, negative = inhibition) at 1uM [%]
O=C(CCNC(=O)c1ccccc1Cl)NCCC1=CCCCC1	16.1
CCN1/C(=C2\OC(=S)N(C)C2=O)C=Cc2ccccc21	18.4
CCOC(=O)C1=C(C)NC(C)=C(C(=O)OCC)C1C(=O)OCC(=O)N1CCc2ccccc21	8.58
CCCSc1nc(N)cc(=O)[nH]1	16.3
CCOc1cccc(C(=O)Nc2ccccc2N2CCN(C(=O)C(C)C)CC2)c1	-45.1
CCN1C(=O)/C(=C\c2ccco2)C(C(=O)OC)=C1C	7.16
OC1CCCN(Cc2c3ccccc3cc3ccccc23)C1 (centres unmarked)	7.11
CC1CC(C#N)N(N(C)C)C1=C(C#N)C#N (centres unmarked)	17.5
CCc1nnc(SCC(=O)Nc2ccc(NC(C)=O)cc2)n1-n1cccc1	17
Cc1cccc(-c2noc(CN(C)S(=O)(=O)c3cc(Cl)ccc3Cl)n2)c1	-5.9
CC1CCCC/C1=N\NC(=S)Nc1ccccc1 (centres unmarked)	1.03
Cc1cc(C)cc(N(CCC#N)C(=O)COC(=O)c2ccc(OCc3c(C)noc3C)cc2)c1	-6.59
O=C(N/N=C\c1ccc(F)cc1)c1ccc(F)cc1	10.3
CC(C)NC(=O)COc1ccc(S(=O)(=O)N2CCOCC2)cc1	14.3
Cc1ccccc1OCC1Cn2c(nc3c2c(=O)n(C)c(=O)n3C)O1 (centres unmarked)	18.3
COc1ccc(S(=O)(=O)N2CCCCC2)cc1NC(=O)CCNC(=O)c1ccccc1Cl	-6.97
Cc1ccc2nc(SCC(=O)NC3CCCCC3)nc(=O)n2c1	-4.63
Cc1cc(C)c(NC(=O)Cn2c(=O)c3cccn3c3ccccc32)c(C)c1	11
COC(=O)c1c(-c2cccnc2)csc1NC(=O)c1ccc2c(c1)OCO2	14.1
Cc1ccc(CC2CC(=O)N(c3cc(C)on3)C2=O)cc1 (centres unmarked)	9.13
